Laboratory results published in the supplement of paper PMC4967469.

How the values were obtained:
Assay in all cases: Viability of human cancer cell lines after 72 h of drug (GDSC screen)
PIK-93 = compound: CC(=O)Nc1nc(C)c(-c2ccc(Cl)c(S(=O)(=O)NCCO)c2)s1 [PIK-93]; conditions: top dose 20 µM
Procedure: (§1)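 Human cancer cell lines in 384-well plates, medium with 10% serum, drug for 72 h over a 256-fold dose range (nine 2-fold or five 4-fold steps up to the top dose). Adherent lines were fixed and stained with the nucleic acid dye Syto60, suspension lines read with resazurin; signal relative to control wells, capped at 0 and 100%. One two-parameter sigmoid per drug and line, fitted in a mixed model over all curves with the slope shared within a line.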

ABT-263 = compound: CC1(C)CCC(c2ccc(Cl)cc2)=C(CN2CCN(c3ccc(C(=O)NS(=O)(=O)c4ccc(N[C@H](CCN5CCOCC5)CSc5ccccc5)c(S(=O)(=O)C(F)(F)F)c4)cc3)CC2)C1 [ABT-263]; conditions: top dose 2 µM; top dose inferred
Procedure: as §1

piperlongumine = compound: COc1cc(/C=C/C(=O)N2CCC=CC2=O)cc(OC)c1OC [piperlongumine]; conditions: top dose 10 µM
Procedure: as §1

GW 441756 = compound: Cn1cc(/C=C2\C(=O)Nc3cccnc32)c2ccccc21 [GW 441756]; conditions: top dose 2 µM; top dose inferred
Procedure: as §1

Row | Cell Line | AUC (PIK-93) | IC50 (PIK-93) [nM] | AUC (ABT-263) | IC50 (ABT-263) [nM] | AUC (piperlongumine) | IC50 (piperlongumine) [nM] | AUC (GW 441756) | IC50 (GW 441756) [nM]
1 | TT (thyroid, adherent) | 0.97 | > 20000 | 0.871 | > 2000 | 0.88 | > 10000 | 0.801 | 1450
2 | TYK-nu (ovary, adherent) | 0.903 | > 20000 | 0.941 | > 2000 | 0.724 | 2840 | 0.978 | > 2000
3 | U-118-MG (glioma, adherent) | 0.877 | > 20000 | 0.895 | > 2000 | 0.746 | 3610 | 0.985 | > 2000
4 | UACC-62 (melanoma, adherent) | 0.962 | > 20000 | 0.983 | > 2000 | 0.737 | 2950 | 0.987 | > 2000
5 | UACC-893 (breast, adherent) | 0.791 | 12500 | 0.955 | > 2000 | 0.703 | 2870 | 0.946 | > 2000
6 | UWB1.289 (ovary, adherent) | 0.862 | > 20000 | 0.907 | > 2000 | 0.774 | 6140 | 0.965 | > 2000
7 | VMRC-RCZ (kidney, adherent) | 0.858 | > 20000 | 0.961 | > 2000 | 0.795 | 5520 | 0.983 | > 2000
8 | WM35 (melanoma, adherent) | 0.605 | 2440 | 0.95 | > 2000 | 0.771 | 3850 | 0.971 | > 2000
9 | WM793B (melanoma, adherent) | 0.766 | 8140 | 0.96 | > 2000 | 0.651 | 1720 | 0.984 | > 2000
10 | WM1552C (melanoma, adherent) | 0.986 | > 20000 | 0.946 | > 2000 | 0.842 | 7090 | 0.987 | > 2000
11 | WM-115 (melanoma, adherent) | 0.689 | 4810 | 0.603 | 256 | 0.762 | 4340 | 0.972 | > 2000
12 | YAPC (pancreas, adherent) | 0.915 | > 20000 | 0.973 | > 2000 | 0.969 | > 10000 | 0.985 | > 2000
13 | YH-13 (glioma, adherent) | 0.68 | 4100 | 0.923 | > 2000 | 0.807 | 5470 | 0.975 | > 2000
14 | YKG-1 (glioma, adherent) | 0.86 | 17100 | 0.977 | > 2000 | 0.717 | 2590 | 0.987 | > 2000
15 | huH-1 (liver, adherent) | 0.984 | > 20000 | 0.845 | 1970 | 0.84 | 9430 | 0.882 | > 2000

Lines with a small IC50 respond at low doses; a fit beyond the top or the lowest dose is shown as a bound at that dose. AUC, from the same fit, is the share of area under the viability curve across the 256-fold dose range: 1 means no effect, lower means more sensitive. For part of these data: The top dose, if marked as inferred, was derived from the fitted curves, not read from the paper.
